Assay results from PubChem BioAssay AID1745853 (National Center for Advancing Translational Sciences (NCATS), 2022).
Some of the results follow. These are further read-outs of the screen, such as a control signal, another cell line or another target. No call is given for them.

Experiments:
Assay in all cases: Primary Screen for Target Class Profiling of Small Molecule Inhibitors of Methyltransferases
[1] = target: Glycine N-methyltransferase (Homo sapiens) (UniProt Q14749); conditions: purified enzyme, MTase-Glo SAH luminescence; measured here: GNMT inhibition; at 40 µM; stronger effect = lower value
Procedure, shortened: (§1)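 Each enzyme was assayed with SAM and its substrate. SAH formation detected by MTase-Glo luminescence; single-point 40 uM screen[…].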

[2] = target: Guanidinoacetate N-methyltransferase (Homo sapiens) (UniProt Q14353); conditions: purified enzyme, MTase-Glo SAH luminescence; measured here: GAMT inhibition; at 40 µM; stronger effect = lower value
Procedure, shortened: as §1

[3] = target: Histamine N-methyltransferase (Homo sapiens) (UniProt P50135); conditions: purified enzyme, MTase-Glo SAH luminescence; measured here: HNMT inhibition; at 40 µM; stronger effect = lower value
Procedure, shortened: as §1

[4] = target: Nicotinamide N-methyltransferase (Homo sapiens) (UniProt P40261); conditions: purified enzyme, MTase-Glo SAH luminescence; measured here: NNMT inhibition; at 40 µM; stronger effect = lower value
Procedure, shortened: as §1

[5] = target: Phenylethanolamine N-methyltransferase (Homo sapiens) (UniProt P11086); conditions: purified enzyme, MTase-Glo SAH luminescence; measured here: PNMT inhibition; at 40 µM; stronger effect = lower value
Procedure, shortened: as §1
% is set by controls: 0 for no effect and ±100 for the full control effect.

| Structure (SMILES) | activity change, negative = inhibition [1] | activity change, negative = inhibition [2] | activity change, negative = inhibition [3] | activity change, negative = inhibition [4] | activity change, negative = inhibition [5] |
| --- | --- | --- | --- | --- | --- |
| Cc1cccc(C)c1-n1c(=O)c2cnc(Nc3ccc(N4CCN(C)CC4)cc3)nc2n2c3ccccc3nc12 | -14.6% | 11.8% | -31.8% | -22.8% | 2.97% |
| CCCC1(CO)CCCN(Cc2nnc(-c3cccc(F)c3)o2)C1 (stereo not given) | -6.47% | -8.86% | -5.54% | -15.4% | -12.7% |
| CCN1C(=O)c2cc3ccccc3n2CC1(C)C(=O)NCC(=O)NCc1cccs1 (stereo not given) | -3.62% | 3.27% | -3.41% | -7.17% | -4.16% |
| O=C1CCC2(CCCN(C(=O)c3ccc(=O)[nH]c3)C2)CN1CCc1cnc[nH]1 (stereo not given) | -5.45% | -6.07% | -2.98% | -8.16% | -6.92% |
| CN[C@H]1CC[C@@H](c2ccc(Cl)c(Cl)c2)c2ccccc21 | -7.64% | 3.98% | -33.3% | -23.2% | 5.25% |
| CC1CCC(NC(=O)C2(C)Cn3c(cc4sccc43)C(=O)N2c2ccc(C(C)C)cc2)CC1 (stereo not given) | 2.09% | 0% | 3.79% | 3.7% | -7.97% |
| Cc1ccc(CN2C(=O)c3cc4occc4n3CC2(C)C(=O)NC2CCCCC2C)cc1 (stereo not given) | 0.599% | 4.03% | 4.66% | -1.59% | 2.53% |
| CC(C)(O)c1ccc2c(c1)C(=O)CC1[C@](C)(CO)CCC[C@]21C (stereo not given in full) | -16.2% | -14% | 4.55% | -26.1% | -1.08% |
| CNC(=O)N1CCC(C2CCN(C(=O)Cn3cccn3)C2)CC1 (stereo not given) | -1.61% | -2.62% | -0.359% | 3.56% | 3.15% |
| CCOCCCNC(=O)N1CCC2(CC1)CC(N(Cc1ccc(F)cc1)C1CC1)CCO2 (stereo not given) | -3.64% | -0.32% | -0.017% | -3.41% | -3.38% |
| Cc1noc(C)c1S(=O)(=O)N1CCC[C@H]1C(=O)N1CCCCCCNC(=O)CC1 | -1.05% | 0.556% | 2.7% | 0.232% | 1.14% |
| Cc1ccc(-c2n[nH]n3c2nc(=O)c2ccc(C(=O)NCCC(C)C)cc23)cc1 | -12.6% | -4.09% | -2.34% | -7.57% | -4.78% |
| CCOC(=O)c1cc2n(n1)CC(C)(C(=O)NCc1ccc(F)cc1)N(Cc1ccc(OC)cc1)C2=O (stereo not given) | 1.36% | 0% | 3.25% | 0.231% | -1.97% |
| Cc1ccc(CN2C(=O)c3cc4ccccc4n3CC2(C)C(=O)NCc2ccccc2)cc1 (stereo not given) | -1.42% | 5.59% | 1.74% | -0.962% | -3.91% |
| CC1CC(=O)NN=C1c1ccc(NCC(C)(C)NCC(O)COc2cc(Cl)ccc2C#N)cc1 (stereo not given) | -7.69% | 5.69% | -13.3% | -17.3% | -8.73% |
| CCn1ccc(C(=O)N2CC(c3nc(CCOCC4CC4)no3)C2)n1 | 2.92% | -1.45% | 0.652% | 3.54% | -4.96% |
| O=C(N1CCCCC1)N1CCN(c2cc(Cl)ncn2)C(=O)C1 | -4.84% | -2.93% | -2.27% | -8.62% | -3.64% |
| O=C(NCc1ccc(F)c(F)c1)C1CN(C2CCCC2)C(=O)N1 (stereo not given) | -0.365% | -0.44% | 2.44% | 0.127% | 2.54% |
| CC1(C)CCC(C)(C)c2cc([C@@H](O)C(=O)Nc3ccc(C(=O)O)cc3F)ccc21 | -6.52% | -3.79% | 6.75% | -29.7% | -1.65% |
